In assay [1] the target is T1, MSLN·His protein (human, UniProt Q13421 296-580, limits assumed).
T1 construct: Bought protein; also called human MSLN·His antigen; not shown: His tag
Put plainly: SPR (Biacore), antibody captured on protein A, MSLN·His as analyte. As to the method:
(1) Detection of affinity at protein level: the binding kinetics and affinity of heavy chain antibody to human MSLN·His antigen were determined using surface plasmon resonance (SPR). The purified antibody was flowed through the sensor chips pre-immobilized with protein A, and the antibody was captured by protein A. Then five different concentrations of MSLN·His protein were used as the mobile phase, and the binding time and dissociation time were 30 min and 60 min, respectively. Biacore Evaluation Software 2.0 (GE) was used to analyze the binding rate (kon, or ka), dissociation rate (koff, or kd) and equilibrium constant (KD). The rabbit antibody YP218, which binds to segment III of mesothelin, was selected as a positive control (Zhang et al., Sci Rep 2015, 21; 5:9928).
In general terms: Surface plasmon resonance follows binding to a sensor surface in real time, without labels.

For assay [2], the target named is T2, MSLN on SKOV3 and Aspc-1 tumor cells (UniProt Q13421 296-598).
T2 construct: whole, on cells; Endogenous mesothelin of tumor cell lines; also called SKOV3 tumor cell line; AsPC-1 tumor cell line
Put plainly: flow cytometry on SKOV3 tumor cells, anti-human IgG PE secondary, fitted curve.

The target in assay [3] is T2, MSLN on SKOV3 and Aspc-1 tumor cells. Description: flow cytometry on Aspc-1 tumor cells, anti-human IgG PE secondary, fitted curve.
T2 sequence (Q13421 other isoform, or with tags, fused parts or gaps limits assumed): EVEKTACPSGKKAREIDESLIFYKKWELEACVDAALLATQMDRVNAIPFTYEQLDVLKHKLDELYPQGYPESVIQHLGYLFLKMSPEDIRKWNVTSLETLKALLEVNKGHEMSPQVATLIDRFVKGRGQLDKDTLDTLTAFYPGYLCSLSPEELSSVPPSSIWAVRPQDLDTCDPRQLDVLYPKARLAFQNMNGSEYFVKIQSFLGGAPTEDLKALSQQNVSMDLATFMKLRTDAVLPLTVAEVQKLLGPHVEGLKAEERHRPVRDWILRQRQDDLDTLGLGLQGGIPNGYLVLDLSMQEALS
Assay [4] addresses T3, segment III of MSLN expressed on HEK293T cells (UniProt Q13421 487-598, limits assumed).
T3 construct: domain: segment III of MSLN; also called HEK293T MSLN-III cells; MSLN segment III protein overexpressing cell line
Put plainly: flow cytometry on HEK293T cells expressing MSLN segment III, anti-human IgG PE secondary, fitted curve. (A flow cytometer gives signals particle by particle.)

As a reminder, the Kd is the concentration at which binding is half-saturated. Higher therefore signals lower affinity. The koff is the rate constant with which the complex falls apart. The low end stands for slow dissociation, the high end for fast dissociation. By kon is commonly meant a measure of how fast the partners come together. As usually defined, the EC50 is the concentration that produces a half-maximal response. Higher therefore signals a need for much substance.

B1: M118-IgG4 (antibody)
heavy: EVQLVESGGGLVQAGGSLTLSCAASEHTFTIDAMGYYRQIPGRRNERQLVAAAGRTGTTYYNDAVKDRFTIYRDTSKETIILQMNNLRPEDTTMYYCAVERYSDQSRFFGPGTQVTVSS[human IgG4 Fc with S228P (EU numbers) left out]
notes: also called M118 heavy chain antibody
As for B1, in assay [1], the Kd was 0.74 nM, the koff is 0.000505 s⁻¹ and the kon was 679000 M⁻¹ s⁻¹. In addition, the EC50 in assay [2] came to 1.33 nM. In addition, in assay [3], the EC50 was 5.16 nM. The same molecule yielded a 50% effective concentration (EC50) in assay [4] of 5.21 nM.

These data come from patent US20240190986A1 (ZHEJIANG NANOMAB TECHNOLOGY CENTER, published 2024).
